Drawing on the supplement of paper PMC10126150, this text covers switch fluorescence ratio for 120 sequences.

Values marked as one replicate rest on one cluster of the flow cell; about a third of the high ones do not repeat.
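Also: ATP exposure 15 min at 22 °C before imaging.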

This data set relates to ATP. Put plainly: switch fluorescence ratio, 500 uM ATP over buffer (Cy3 cluster intensity, sum of 5 cycles each) (fold (ratio)); higher = stronger signal-on switching upon ATP binding; sequences stand for … in TCGTCGGCAGCGTCAGATGTGTATAAGAGACAGTTTTTTTTTTTTTTTTTTTTTTTTT…TC. The note with it: aptamer strand: ATP DNA aptamer (quencher-CACCTGGGGGAGTATTGCGGAGGAAGG + anchor), 100 nM annealed; ATP concentration: 500 uM; one replicate. The essentials: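 Between each of five buffer/ATP cycles, the flow-cell was stripped with NaOH and re-annealed. Each cycle imaged Cy3-labelled switching-strand clusters, annealed to 100 nM quencher-labelled ATP aptamer on a modified Illumina MiSeq flow-cell, first in selection buffer and then after 15 min with 500 uM ATP at 22 °C. The fluorescence ratio is summed target-cycle over summed buffer-cycle Cy3 intensity per cluster, averaged per switch-domain sequence, with clusters outside 100-1000 RFU excluded.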
Regarding GTTGCCGATT, the switch fluorescence ratio was found to be 0.987. TGTGCTAGCC: the switch fluorescence ratio is 1.04. Under AGTGTGCTTG stands 0.982.

On to CCCCTCGCAG, for which the switch fluorescence ratio came to 3.34.

With CGCATGGAT, the switch fluorescence ratio was 1.11. Under GCGCTTATTG stands 0.981. With AACCGTTTTC, the switch fluorescence ratio was determined as 1.02. For GTGCAGGTTC, the switch fluorescence ratio is 0.985. As for GAATCGCCTC, the switch fluorescence ratio came to 1.02.

With GCTTTGCGCA, the switch fluorescence ratio stood at 1.01. Under GTGATAGTAG stands 1; under ACTGCCCC, 1.29. The value for CCGCTGTATC was 3.48; that for CGTCGGGGTC was 1; that for TCAGTTTAAT was 0.976. The value for ACTTACAATC was 1.28. In the case of GGTACCTCG, the switch fluorescence ratio was determined as 1.03. Under TGCGAGGGAG stands 0.932.

Turning to ACCTCAATAT, the switch fluorescence ratio came to 1.47. Under GCCGTTTCTG stands 0.945. The value for ATATTAACTA was 1.02. Under AATTCAGACG stands 1.13; under AGAGGTCCG, 1.09; under CTGCGGATTT, 1. With TGCGCTGTGT, the switch fluorescence ratio came to 1.02. The value for CTGACATT was 1.03; that for CTCGCTACCC was 1.49; that for AGGCCATTTT was 1.04. The value for GGACAGTAGT was 1.05; that for ATACTTTCG was 1.06. With CGACGAGGGT, the switch fluorescence ratio was 1.06.

For the sequence ACCGTCAGCT, the switch fluorescence ratio was 1.02. Under GGTTGACCGT stands 0.949; under GTTGTACTTT, 1.05. With GCCAGTCA, the switch fluorescence ratio came out at 0.986.

Regarding GGCAGTGCAG, the switch fluorescence ratio came out at 0.967. Under CTCTTGGTCT stands 1.03; under GGAGCGTATG, 0.991; under TTTCCGGCTG, 0.979. The value for TTTCAATAAG was 1; that for AATTCTCAT was 0.984.

Regarding CACAGCAATG, the switch fluorescence ratio was found to be 2.24. CGTTGGAAAC: the switch fluorescence ratio was found to be 1.01. Under TGTGGGACAC stands 1.03. Under GTCTACTACC stands 1.19. Take TATATATCTA: the switch fluorescence ratio was 1.02. With CAAGACGTGC, the switch fluorescence ratio was found to be 1.1. The value for GTGGGTCTCC was 1.01. Turning to TTTGCTTCGG, the switch fluorescence ratio came to 1.01. As to TTGATCATGG, the switch fluorescence ratio came out at 1.05.

For the sequence ATCATCCTAC, the switch fluorescence ratio came out at 1.17.

With CATGTCGGAT, the switch fluorescence ratio is 0.957. On to AGTTGAGGAG, for which the switch fluorescence ratio came to 1.02. As to GGAGATTGGC, the switch fluorescence ratio worked out at 1.05.

As to CTTGAGTGAC, the switch fluorescence ratio amounted to 0.986. The value for CACTCGCGAT was 3.17; that for CAAGCGCGAC was 1.15; that for CCAGTGAGTA was 1.02. Under CAACGCCGC stands 1.41; under CAGTGCTCAG, 1; under GTTTTAAGAT, 0.985.

On to AGACAAGAG, for which the switch fluorescence ratio was determined as 0.974. The value for GCTCACAAAC was 1.42; that for ATACCATTTG was 1.04; that for GTTTGATAAG was 1.03. The value for AGTCGGAGCG was 1.01. For the sequence TGTAACTTGG, the switch fluorescence ratio is 0.99.

In the case of TGTTATATTT, the switch fluorescence ratio was 0.99. Under CGAAAATGTC stands 1.02. ACGTGGCGA: the switch fluorescence ratio was determined as 1.03. Under ATGTGCTCCA stands 0.995; under GTCACGAGCG, 1.05; under AGCTTTGTGG, 0.985. Under CTTTACCGAC stands 1.54; under GCAGCCGTTT, 1.03; under TATGGAATAC, 3.77.

In the case of TGGTGTCATC, the switch fluorescence ratio amounted to 0.987.

With CATAAGAGGA, the switch fluorescence ratio was found to be 1. Under CGATCAACCG stands 1. AACTATCTT: the switch fluorescence ratio came out at 0.959.

For the sequence AAATATGGCC, the switch fluorescence ratio worked out at 1.03. Under GTGGTAATTC stands 1.01. Under GGTATATTTG stands 1.13. As to GCGTACTATA, the switch fluorescence ratio amounted to 1.03.

Regarding GCTGGACCGT, the switch fluorescence ratio was determined as 0.99. Regarding GGCCGAAATG, the switch fluorescence ratio was found to be 1.01. On to GACAGCCACG, for which the switch fluorescence ratio is 1.06. GGAGTGATGT: the switch fluorescence ratio was 1.09.

For the sequence AACGTGGGGG, the switch fluorescence ratio came to 0.976.

For TGTTTGTTTA, the switch fluorescence ratio came out at 1.01. On to ATGTCGCTGG, for which the switch fluorescence ratio amounted to 0.964. On to AGCAAAAGAC, for which the switch fluorescence ratio is 1.9. On to TAATTCAACT, for which the switch fluorescence ratio came out at 1.01.

On to AAAGATAGAC, for which the switch fluorescence ratio amounted to 1.01. Under ATAGGGTTA stands 0.974; under CATCATTATC, 1.01. Turning to GCTTTCAC, the switch fluorescence ratio was found to be 1.02. The value for ATTAAGTCAA was 0.978; that for TAAATCGACC was 1.13; that for TTGGAGTTCT was 1.07.

On to GTAGTTTAGG, for which the switch fluorescence ratio was found to be 0.971. The value for CACCTGGGAG was 1.02; that for CTGCTGATTG was 1.04. For TTCGCTGTGT, the switch fluorescence ratio worked out at 0.989. The value for AACGAGGTGC was 1.01. Turning to ATATCCAGTA, the switch fluorescence ratio is 1.04. The value for GATATAAGGT was 1.03; that for AGCTTTCAGG was 1.04. On to TGTGGAGCT, for which the switch fluorescence ratio worked out at 0.963. As to AGGGCCTGAA, the switch fluorescence ratio was found to be 0.998. Under CGTCGCTTTC stands 0.98. Consider TGTTGTGGCC, for which the switch fluorescence ratio is 0.967. Under CGCAGTAGTC stands 1.69; under TTCTCCACGG, 1.27; under CATCGACACA, 1.02. The value for GCTCATATTT was 0.977; that for GCTTGATTGC was 1.07.

Take CCGTAGGTGG: the switch fluorescence ratio is 1.08. Under CTTAAAATTC stands 1.03; under TCACGAGATG, 1.05.
